# The antibiotic and cytotoxicity screens of Wong et al. (2023)
# Some of the results follow.
# Assays:
# HSkMC = human skeletal muscle cells; assay: cytotoxicity call (relative viability < 0.9); settings: 10 µM
# S. aureus RN4220 = assay: growth inhibition call (relative growth <= 0.2); settings: 50 µM
Structure (SMILES),cytotoxicity call (HSkMC),growth inhibition call (S. aureus RN4220)
O=c1cn[nH]c(NC2CCCC2)n1,inactive,inactive
C[C@@H]1CCCCO[C@@H](CN(C)S(=O)(=O)c2ccc(Cl)cc2)[C@H](C)CN([C@@H](C)CO)C(=O)c2cc(NS(=O)(=O)c3ccc(Cl)cc3)ccc2O1,inactive,inactive
O=C1c2ccccc2[C@@]2(Cc3ccccc3N(C3CC3)C2=O)[C@H](c2ccc(CO)cc2)N1Cc1ccccc1Cl,inactive,inactive
CC(=O)Nc1ccc(CC(=O)O)cc1,inactive,inactive
O=C(O)C1CCOCC1,inactive,inactive
COc1ccc2c3c(n(c2c1)C)[C@H](CO)N(C[C@]13CCN(CC1)C(=O)CN1CCOCC1)C(=O)Nc1ccc(cc1)F,inactive,inactive
COc1cccc(-c2ccc3c(c2)O[C@@H](CN(C)C(=O)C2CCC2)[C@@H](C)CN([C@H](C)CO)S3(=O)=O)c1,inactive,inactive
CN1C(=O)c2cc(NC(=O)c3cscn3)ccc2OC[C@@H]2O[C@H](CC(=O)N3CCOCC3)CC[C@H]21,inactive,inactive
O=C(OC1Cc2c(O)cc(O)cc2OC1c1ccc(O)c(O)c1)c1cc(O)c(O)c(O)c1 (stereo not drawn),inactive,inactive
CC(=O)OC[C@H]1O[C@@H](n2cc(C)c(=O)[nH]c2=O)C[C@@H]1OC(C)=O,inactive,inactive
COc1ccc(CN(C)C[C@@H]2Oc3c(NS(=O)(=O)c4cn(C)cn4)cccc3C(=O)N([C@H](C)CO)C[C@@H]2C)cc1,inactive,inactive
Cc1ccc(S(=O)(=O)Nc2ccc3c(c2)C(=O)N([C@@H](C)CO)C[C@@H](C)[C@@H](CN(C)C(=O)Nc2ccccc2)OCCCC[C@H](C)O3)cc1,inactive,inactive
COc1ccc(S(=O)(=O)N2C[C@H](O)COC[C@@H]3O[C@H](CC(=O)NCc4ccc(Cl)c(Cl)c4)CC[C@H]32)cc1,inactive,inactive
C[C@@H]1CCCCO[C@H](CN(C)CC2CC2)[C@@H](C)CN([C@H](C)CO)C(=O)c2cc(NC(=O)Nc3ccc4c(c3)OCO4)ccc2O1,inactive,inactive
Cn1c(=O)[nH]c2nnc(-c3ccccn3)nc2c1=O,inactive,inactive
Cc1cccc(S(=O)(=O)N2C[C@H](O)COC[C@@H]3O[C@@H](CC(=O)NCCCN4CCOCC4)CC[C@H]32)c1,inactive,inactive
Cc1noc(C)c1NC(=O)N(C)C[C@@H]1Oc2c(NS(=O)(=O)c3cn(C)cn3)cccc2C(=O)N([C@H](C)CO)C[C@@H]1C,inactive,inactive
Cc1ccc(S(=O)(=O)N(C)C[C@H]2OCCCC[C@@H](C)Oc3ccc(NS(=O)(=O)c4ccc(Cl)cc4)cc3C(=O)N([C@H](C)CO)C[C@@H]2C)cc1,inactive,inactive
Cc1ccc(S(=O)(=O)N2C[C@H](O)COC[C@@H]3O[C@H](CC(=O)NCCCN(C)C)CC[C@H]32)cc1,inactive,inactive
C[C@H]1CN([C@@H](C)CO)C(=O)c2cc(-c3cccc(C(=O)N(C)C)c3)cnc2O[C@H]1CN(C)C(=O)Cc1ccccn1,inactive,inactive
C[C@@H]1CN([C@@H](C)CO)C(=O)c2cc(NC(=O)NC3CCCCC3)ccc2O[C@@H](C)CCCCO[C@H]1CN(C)S(=O)(=O)c1cccs1,inactive,inactive
CN1CCN(C(=O)C[C@@H]2CC[C@H]3[C@H](COc4ccc(NC(=O)C5CCOCC5)cc4C(=O)N3C)O2)CC1,inactive,inactive
OCCN1CCN(c2ncnc3c2ncn3[C@H]2CN(Cc3ccccc3)C[C@@H](CO)O2)CC1,inactive,inactive
CC(C)OC[C@H]1Cn2c(nc3c2c(=O)n(C)c(=O)n3C)O1,inactive,inactive
C[C@@H]1O[C@@H](O)[C@H](O)[C@H](O)[C@H]1O,inactive,inactive
C[C@@H]1CN([C@@H](C)CO)C(=O)c2cc(NC(=O)Cn3cnnn3)ccc2O[C@H]1CN(C)Cc1ccc(-c2ccccc2)cc1,inactive,inactive
C[C@@H]1CCCCO[C@H](CN(C)C(=O)C2CCCCC2)[C@H](C)CN([C@@H](C)CO)C(=O)c2cc(NS(=O)(=O)c3cccs3)ccc2O1,inactive,inactive
Cc1ccc(S(=O)(=O)N[C@@H]2CC[C@@H](CC(=O)N3CCC(Cc4ccccc4)CC3)O[C@@H]2CO)cc1,inactive,inactive
COCCOC(=O)N1C(=O)[C@@]2(c3cc(C#CC4=CCCCC4)ccc31)[C@H](c1ccc(OCCO)cc1)N1[C@H](c3ccccc3)[C@H](c3ccccc3)OC(=O)[C@H]1[C@@H]2C(=O)N1CCN(c2ncccn2)CC1,inactive,inactive
